Each structure is given as a SMILES string. Screen size: about 310,000 compounds; about 2,200 (0.71%) showed an effect of 50% or more. The effect is printed as a negative number. Some of the results follow.

The target in the experiment is human ether-à-go-go-related gene (hERG) potassium channel (human, UniProt Q12809). Briefly: primary screen, population patch clamp on CHO cells stably expressing hERG.
human ether-à-go-go-related gene (hERG) potassium channel, sequence (Q12809 whole entry, looked up): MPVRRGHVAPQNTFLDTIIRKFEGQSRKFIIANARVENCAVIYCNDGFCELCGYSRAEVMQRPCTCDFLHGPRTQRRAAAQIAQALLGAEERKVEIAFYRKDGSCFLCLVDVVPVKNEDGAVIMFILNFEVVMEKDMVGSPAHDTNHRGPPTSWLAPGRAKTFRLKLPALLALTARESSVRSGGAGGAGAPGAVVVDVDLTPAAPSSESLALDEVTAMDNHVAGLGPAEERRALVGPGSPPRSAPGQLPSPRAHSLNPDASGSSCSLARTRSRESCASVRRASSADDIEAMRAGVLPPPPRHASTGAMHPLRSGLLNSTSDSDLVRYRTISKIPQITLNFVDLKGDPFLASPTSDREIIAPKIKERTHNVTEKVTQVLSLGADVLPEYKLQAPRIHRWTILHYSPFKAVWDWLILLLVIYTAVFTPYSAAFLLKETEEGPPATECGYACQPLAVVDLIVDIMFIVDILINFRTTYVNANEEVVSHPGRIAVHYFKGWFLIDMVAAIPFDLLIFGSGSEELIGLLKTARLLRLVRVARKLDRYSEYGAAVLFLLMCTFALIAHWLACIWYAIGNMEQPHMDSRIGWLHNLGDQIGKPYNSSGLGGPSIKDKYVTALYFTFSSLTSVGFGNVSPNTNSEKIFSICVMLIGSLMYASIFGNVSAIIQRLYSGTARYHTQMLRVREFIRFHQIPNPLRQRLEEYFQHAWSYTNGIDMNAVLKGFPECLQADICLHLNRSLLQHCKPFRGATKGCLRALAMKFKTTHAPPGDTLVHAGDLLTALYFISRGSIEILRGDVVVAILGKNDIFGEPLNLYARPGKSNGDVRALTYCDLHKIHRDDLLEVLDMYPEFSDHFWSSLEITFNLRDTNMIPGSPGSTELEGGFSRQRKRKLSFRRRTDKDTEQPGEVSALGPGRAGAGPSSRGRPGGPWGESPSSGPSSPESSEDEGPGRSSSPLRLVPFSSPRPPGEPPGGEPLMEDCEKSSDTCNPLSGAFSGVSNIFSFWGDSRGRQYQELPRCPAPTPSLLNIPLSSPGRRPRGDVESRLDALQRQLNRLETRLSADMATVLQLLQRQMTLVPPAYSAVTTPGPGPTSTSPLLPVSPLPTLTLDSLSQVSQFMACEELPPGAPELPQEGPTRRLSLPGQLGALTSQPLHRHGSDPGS
As for `O=C(CC(c1ccccc1)c1ccccc1)Nc1nn[nH]n1`, the “hERG current change (%, negative = inhibition) at 1uM” value worked out at 8.7%. Under `O=c1nc2n(c3cc(Cl)c(S(=O)(=O)N4CCOCC4)cc13)CCCCC2` stands 18.8%; under `Cc1nc2ccccc2c(=O)n1NC(=O)c1ccc([N+](=O)[O-])cc1`, 6.73%.

Turning to `COc1ccc(C2C3=C(CC(C)(C)CC3=O)Nc3c2c(=O)n(C)c(=O)n3C)cc1OC` (stereo not drawn), the “hERG current change (%, negative = inhibition) at 1uM” value came out at 13.1%. Under `Cc1ccc(CNC(=O)CCSCc2ccccc2F)cc1` stands 1.01%. Turning to `Fc1cnc(N2CCc3ccccc32)nc1N1CCc2ccccc21`, the “hERG current change (%, negative = inhibition) at 1uM” value was found to be 11.7%. Consider `CC(C)C(=O)Nc1ccc([N+](=O)[O-])cc1Br`, for which the “hERG current change (%, negative = inhibition) at 1uM” value is on record as 12.6%.

As for `CCN1CCN(S(=O)(=O)c2ccc(Cl)c(C(=O)NC3CC3)c2)CC1`, the “hERG current change (%, negative = inhibition) at 1uM” value came out at 3.89%. With `CC(=O)Nc1ccc(-c2nc(C)c(C(C)=O)n2O)cc1`, the “hERG current change (%, negative = inhibition) at 1uM” value was -1.97%.

With `CN(C)c1ccc(C(=O)N/N=C/c2cc(Br)cc(Br)c2O)cc1`, the “hERG current change (%, negative = inhibition) at 1uM” value is reported as 14.5%.

As to `Cc1ccccc1OCCCc1c(C)n[nH]c1C.Cl`, the “hERG current change (%, negative = inhibition) at 1uM” value is listed as 11.1%. For `Cc1ccc2cc(CCNC(=O)c3ccc4c(c3)OCO4)c(=O)[nH]c2c1` the value was 4.67%. In the case of `O=C(c1ccco1)N1CCN(C(=O)c2ccc(Cn3cc(Br)cn3)o2)CC1`, the “hERG current change (%, negative = inhibition) at 1uM” value is reported as -0.52%. `COc1ccc2c(c1)CCc1c-2nc2ccccc2c1N1CCOCC1`: the “hERG current change (%, negative = inhibition) at 1uM” value was 4.97%.

Take `O=C(NN1C(=O)c2ccccc2NC1c1ccoc1)c1ccc([N+](=O)[O-])cc1` (stereo not drawn): the “hERG current change (%, negative = inhibition) at 1uM” value is on record as -3.73%.

For `CC(C)NC(=O)C(C)n1cccc1C(=O)c1ccccc1` (stereo not drawn), the “hERG current change (%, negative = inhibition) at 1uM” value is 6.45%. For `COc1ccccc1C1Nc2cccc3cccc(c23)N1` the value was -4.5%; for `COc1ccccc1C(=O)CSc1nnc(-c2ccco2)o1`, 9.29%.

With `CC(C)NC(=O)CSCc1cccc(Br)c1`, the “hERG current change (%, negative = inhibition) at 1uM” value is given as 13.1%. Under `Nc1cc2c(cc1C(=O)c1ccccc1F)OCCO2` stands -0.126%; under `CC(C)COc1ccc(C(=O)OCCN2CCOCC2)c(O)c1.Cl`, 3.74%. Regarding `COCCCNC(=O)c1cc(C)nn1-c1ccccc1`, the “hERG current change (%, negative = inhibition) at 1uM” value turned out to be 2.21%. With `O=C(Nc1ccc(Nc2ccccc2)cc1)C(Cl)Cl`, the “hERG current change (%, negative = inhibition) at 1uM” value is listed as -3.64%.

Regarding `O=C(CSc1nnc(CCc2ccccc2)n1-c1ccc(Cl)cc1)NCc1ccccc1`, the “hERG current change (%, negative = inhibition) at 1uM” value worked out at 12.2%. As to `O=C(CSc1nnc(Cc2ccccc2)o1)N1CCCc2ccccc21`, the “hERG current change (%, negative = inhibition) at 1uM” value was 8.72%. For `C=CCNC(=O)c1ccccc1CCc1ccccc1`, the “hERG current change (%, negative = inhibition) at 1uM” value was 10.1%. On to `COc1ccc2c(c1)CCc1sc(NC(=O)c3ccco3)nc1-2`, for which the “hERG current change (%, negative = inhibition) at 1uM” value came to 16.7%.

Regarding `COC(=O)Oc1cncc(C(=O)O)c1`, the “hERG current change (%, negative = inhibition) at 1uM” value stood at 14.2%. For `O=S(=O)(NC1CCN(Cc2ccccc2)CC1)c1cccc(S(=O)(=O)N2CCOCC2)c1` the value was -6.86%. For `COc1ccc(CCNC(=O)COc2cccc3c2OC(C)(C)C3)cc1OC`, the “hERG current change (%, negative = inhibition) at 1uM” value was 15.7%. Turning to `O=C1Cc2ccccc2C(=O)N1c1cccc(Cl)c1`, the “hERG current change (%, negative = inhibition) at 1uM” value is listed as 16.6%.

Take `O=C(CSc1ccccc1F)OCC(=O)N1CCN(C(=O)c2ccco2)CC1`: the “hERG current change (%, negative = inhibition) at 1uM” value came out at 3.26%. With `CCCCOc1ccc(C(=O)NCCc2cccs2)cc1`, the “hERG current change (%, negative = inhibition) at 1uM” value stood at 9.49%. In the case of `COc1ccc(S(=O)(=O)NCc2ccc(C(=O)NCCCN3CCCC(C)C3)cc2)cc1` (stereo not drawn), the “hERG current change (%, negative = inhibition) at 1uM” value was found to be 13.9%. `C=C(C(=O)c1ccccc1)C(CC(=O)c1ccccc1)c1ccccc1` (stereo not drawn): the “hERG current change (%, negative = inhibition) at 1uM” value was found to be 10.8%. Under `CC(C)COc1ccc(C(=O)Nc2ncn[nH]2)cc1` stands 16.5%. For `COc1ccc(C2C(C(C)=O)=C(C)Nc3ncnn32)cc1OC` (stereo not drawn) the value was 8.18%; for `CC(C)CCCC(C)NS(=O)(=O)Cc1ccccc1` (stereo not drawn), 10.2%; for `CCOc1ccc(C(=O)NC2=NCCS2)cc1`, 2.56%. As for `COc1cccc(/C=C/C(=O)OCC(=O)c2c(N)n(C)c(=O)n(C)c2=O)c1`, the “hERG current change (%, negative = inhibition) at 1uM” value was found to be 16.6%.

Consider `CC(C(=O)O)N1C(=O)CSc2ncccc21` (stereo not drawn), for which the “hERG current change (%, negative = inhibition) at 1uM” value is on record as 11.4%. As to `Cc1ccc(/C=C(\NC(=O)c2ccccc2)C(=O)NCCN2CCOCC2)o1`, the “hERG current change (%, negative = inhibition) at 1uM” value is listed as 1.36%. Under `COC(=O)c1sc(OC)cc1OCc1ccc(C)cc1` stands 8.3%; under `Nc1ccc2nc(SCC(=O)N3CCOCC3)sc2c1`, 15.6%. For `O=C(NCCc1ccccc1)C1CCN(S(=O)(=O)N2CCC3(CC2)OCCO3)CC1` the value was 4.05%; for `O=C(CCNS(=O)(=O)c1ccccc1)N1CCN(c2ccccc2)CC1`, 1.83%; for `CCCNC(=O)CC(NS(=O)(=O)c1ccc(OC)cc1)c1ccco1` (stereo not drawn), 2.46%. For `COc1ccc(C(=O)NNC(=O)c2ccncc2)cc1` the value was -0.999%. Consider `O=C(CNS(=O)(=O)c1ccc(F)c(Cl)c1)N1CCCC1`, for which the “hERG current change (%, negative = inhibition) at 1uM” value is given as 1.18%.

On to `Cc1[nH]c2ccc(C(=O)N3CCN(c4cccc(Cl)c4)CC3)cc2c1C`, for which the “hERG current change (%, negative = inhibition) at 1uM” value was found to be 26.6%. For `O=[N+]([O-])c1ccc(S(=O)(=O)Nc2ccncc2)cc1` the value was 11.6%; for `COc1cccc(NC(=O)c2cc([N+](=O)[O-])ccc2NCc2cccnc2)c1`, 5.13%. For `CCN(CC)CCn1cnc2c1c(=O)[nH]c(=O)n2Cc1ccccc1.Cl` the value was 13.4%. Regarding `O=S(=O)(c1ccc(NC(=S)NC2CC2)cc1)N1CCOCC1`, the “hERG current change (%, negative = inhibition) at 1uM” value was found to be 11.2%. Turning to `Cc1ccc(NC2CCCN(C(=O)CCn3nccc3C)C2)cc1C` (stereo not drawn), the “hERG current change (%, negative = inhibition) at 1uM” value is 8.02%. As to `CCC(=O)Nc1nnc(S(=O)(=O)N(C)Cc2ccco2)s1`, the “hERG current change (%, negative = inhibition) at 1uM” value came out at 11.9%.

As to `Cc1ccc(OCC(=O)Nc2cccc(-c3nnc(-c4ccccc4)o3)c2)cc1`, the “hERG current change (%, negative = inhibition) at 1uM” value turned out to be 12.6%. For `CCOC(=O)c1c(NC(=O)c2ccn(CC)n2)sc2c1CCCC2` the value was 1.07%. For `O=S(=O)(/C=C/c1ccccc1)Nc1cccc(S(=O)(=O)NC2=NCCC2)c1` the value was 3.21%. Under `S=C(Nc1ccccc1)Nc1ccc(OCc2ccc(Cl)cc2Cl)cc1` stands 13.9%; under `COC(=O)c1ccc(-n2c(C)cc(C(=O)CCl)c2C)cc1`, 21.8%. On to `COc1ccc(CCNC(=O)c2sc3nc4n(c(=O)c3c2C)CCC4)cc1`, for which the “hERG current change (%, negative = inhibition) at 1uM” value was determined as 12.3%.

In the case of `Cn1c(C(=O)NCCCN2CCCCC2)cc2sccc21`, the “hERG current change (%, negative = inhibition) at 1uM” value is on record as -13.7%. With `CCCn1c(=O)[nH]c(=O)c2[nH]cnc21`, the “hERG current change (%, negative = inhibition) at 1uM” value is 12.4%.

Take `O=C(CSc1ccc(-c2ccc3c(c2)OCO3)nn1)Nc1nccs1`: the “hERG current change (%, negative = inhibition) at 1uM” value came to 9.09%.

As for `O=C(CN1CCN(c2ccccc2)CC1)Nc1ccc(-n2cnnn2)cc1`, the “hERG current change (%, negative = inhibition) at 1uM” value was 6.89%. Under `O=C(Nc1ccc(N2CCOCC2)cc1)c1ccc(Cl)nc1` stands 8.92%. For `CC(C)Sc1nc2ccc(Br)cc2[nH]1` the value was 2.07%; for `O=C(C1CCCN(S(=O)(=O)c2cnc[nH]2)C1)N1CC(=O)N(CCc2ccccc2)C(=O)C1` (stereo not drawn), 5.42%. For `CC1CCCN(CC(=O)Nc2ccc(S(=O)(=O)NC3CCCCC3)cc2)C1` (stereo not drawn), the “hERG current change (%, negative = inhibition) at 1uM” value is listed as -1.25%. As to `N#Cc1ccc(OCC(=O)N2CCN(c3ccc(C(F)(F)F)cn3)CC2)cc1`, the “hERG current change (%, negative = inhibition) at 1uM” value was -8.68%. `CC(=O)N1CC(C)Sc2ccc(S(=O)(=O)N3CCCCC3)cc21` (stereo not drawn): the “hERG current change (%, negative = inhibition) at 1uM” value was 8.08%. For `O=C(CO/N=C/c1ccccc1OC(F)F)NCc1cccs1`, the “hERG current change (%, negative = inhibition) at 1uM” value worked out at 9.33%. Regarding `O=C(NCCCc1ccccc1)c1cc(COc2c(F)cccc2F)on1`, the “hERG current change (%, negative = inhibition) at 1uM” value came to 0.146%. With `CCOC(=O)c1sc2nc(C3CC3)cc(-c3ccc(OC)cc3)c2c1N`, the “hERG current change (%, negative = inhibition) at 1uM” value turned out to be 13.1%. For `CCOc1cc(N2CCOCC2)c(OCC)cc1NC(=O)CN1CCc2ccccc2C1` the value was 17.1%; for `Cc1ccc(OCCn2c(=S)[nH]c3c(N)ncnc32)cc1`, 19.8%; for `COc1ccc(N(CC(=O)N/N=C/c2ccc(OC)cc2OC)S(=O)(=O)c2ccccc2)cc1`, 16.1%. For `Cn1c(CC(=O)Nc2ccccc2)n[nH]c1=S` the value was 7.8%; for `CCn1c(SCC(=O)Nc2ccccc2F)nnc1-c1cnccn1`, 14.8%; for `CCCOc1ccc(C(F)(F)F)cc1NC(=O)C1CC(=O)N(Cc2ccco2)C1` (stereo not drawn), -4.68%. For `Cc1cc2c3c([nH]c2cc1S(=O)(=O)N1CCC2(CC1)OCCO2)CC(C)(C)CC3=O` the value was 6.46%; for `O=C(O)C(Cl)(Cl)Cl`, 3.43%. With `O=S(=O)(c1ccc(Br)cc1)N1CCCN(Cc2ccccc2F)CC1`, the “hERG current change (%, negative = inhibition) at 1uM” value is listed as 3.97%. For the compound `CN1CCN(CCCNC(=O)Cn2nc(-c3ccccc3)ccc2=O)CC1`, the “hERG current change (%, negative = inhibition) at 1uM” value was 8.09%.

`CCOC(=O)C1CCN(CCC(=O)Nc2ccccc2Cl)CC1.Cl`: the “hERG current change (%, negative = inhibition) at 1uM” value amounted to 0.369%. Under `C[C@@H](C(=O)Nc1nc2ccc(F)cc2s1)N1C(=O)C2CC=CCC2C1=O` (stereo partly drawn) stands 4.44%; under `COc1cc(C(=O)O)cc(OC)c1OCc1cc(C(=O)O)oc1C`, 15.4%. As for `Cc1cc(NCCCn2ccnc2)n2ncc(-c3ccc(Cl)cc3)c2n1`, the “hERG current change (%, negative = inhibition) at 1uM” value is listed as -25.2%.

As for `CCc1cc(=O)oc2cc(OCC(=O)N(CC)CC)c(Cl)cc12`, the “hERG current change (%, negative = inhibition) at 1uM” value is on record as 15.3%. As for `Cc1nc2c(-c3ccc(F)cc3)c(C)nn2c(C)c1CCC(=O)N1CCC(Cc2ccccc2)CC1`, the “hERG current change (%, negative = inhibition) at 1uM” value came out at 5.52%. Regarding `O=S(=O)(c1ccccc1F)N1CCc2ccccc2C1`, the “hERG current change (%, negative = inhibition) at 1uM” value turned out to be 17.6%. `CC(=O)N(CN1C(=O)c2ccccc2C1=O)c1cccc(C)c1`: the “hERG current change (%, negative = inhibition) at 1uM” value came out at 3.96%.

The values are drawn from article PMC4336329 (PLoS ONE, 2015).
